# Source: the supplement of paper PMC11417369
# ± gives the standard deviation of the averaged measurements. This is one part of the list.
# System: PfAP2-G AP2 domain (GST-tagged)
# Assay: gcPBM binding intensity (ln(normalized median fluorescence intensity)); higher = stronger DNA binding
# Summary of the method: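 Binding of GST-tagged P. falciparum DNA-binding domains, expressed in E. coli and used at about 25 μg on average, was carried out for 1 h in 1× PBS containing 1% milk, 0.2 mg/ml BSA, 0.5% salmon testes DNA and 0.03% Triton X-100. The target was an Agilent 4 × 180k array of primer-extended double-stranded 36-bp intergenic genomic probes plus negative controls, read with Alexa488 anti-GST antibody at 488 nm. Binding intensity is the highest Masliner-normalised natural-log median intensity across replicate spots of either probe orientation.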
row,Sequence,gcPBM binding intensity (ln)
1,GCTAAAAGTATATGCACACACATATAGATGCACATA [CACACA_site6868],10.2 ± 0.24
2,ATTCTATATTTAAATGCATGCACTTTCTATTTTTTT [TGCATGCA_site435],9.955 ± 0.049
3,TTTAATTTGTTATACACACACAAAAAAAATTATAAA [CACACA_site3937],10.2 ± 0.3
4,CATACATAGAAACACACACACACACCCACCCACAAA [CACACA_site494],10.3 ± 0.21
5,AATGTGCCCACGCGTACACACAAAAAAAGAAAAAAA [CACACA_site2003],11.7 ± 1.1
6,TTTTAAAAAAAAAAAAAAAAAATTAAAATAATTCAA [TGCATGCA_negctrl_site69],9.08 ± 0.014
7,ATAAAATAATTAATGGGTACATAATTAAATAAAGAG [XGTACX_site3309],11.3 ± 0.66
8,GGATAAGATGTATATACACACAATTTAAAAAAATAA [CACACA_site910],10.1 ± 0.23
9,AAGATAGACTCATATGCATGCATTCACATACCAACA [TGCATGCA_site179],10.09 ± 0.064
10,TTAATATAGGAATATGCACACATATATACATACATA [CACACA_site8432],9.945 ± 0.064
11,AATACAATTTTTAACACACACACAATAATACAGATA [CACACA_site4823],10.2 ± 0.18
12,GTGTAATTTATTGTGTTGCACTTTTTTTTTTTTTTT [GTGCAC_site9644],10.6 ± 0.32
13,TACAATTTGATATATACACACAAATAAATTATGCTT [CACACA_site6534],9.98 ± 0.25
14,AAAAGTACAATATATATGTATGTGTATAGAATGGTT [TGCATGCA_negctrl_site76],11.1 ± 0.79
15,ATAATATTATACTTTGCACACATCTGAAATGACATA [CACACA_site3952],10.2 ± 0.18
16,GATAAAATAAAAGTGGGTACTTAAATATATATATAA [XGTACX_site8457],11.2 ± 0.67
17,TTTGATAAAATTGATATCCTATAATTATATAAATAA [GTGCAC_negctrl_site317],9.7 ± 0.028
18,AAAAAACAGACATACACACACACACCCATATATATA [CACACA_site3392],10 ± 0.11
19,AAAGAATTTAAATATTGTACGCAATATATAAAAAAA [XGTACX_site7616],11.5 ± 0.92
20,TAATATTATTATTTTACACACTTTTTTCCTTTTATC [CACACA_site2457],9.985 ± 0.049
21,ATATGAAGTTATATAGTGCACATGTACAACCAAATC [GTGCAC_site9974],11.6 ± 0.88
22,GATGTTCATCACTACACACACAAAGAAATATAAATA [CACACA_site7294],10.1 ± 0.27

row,Sequence,gcPBM binding intensity (ln)
1,TACCCAAAGTTACATACACACTAATATTTACACCAT [CACACA_site4709],10.1
2,TTCTATATATATATAGACAAACGATAAAATAAAAAA [GTGCAC_negctrl_site142],10.1 ± 0.23
3,TAATAATAGTGAGAGTGTACTTTAAATAAAATATAT [XGTACX_site2850],11.2 ± 0.83
4,AGAAAAGAAATTAGTTGTACTCTGATGAATTATCCT [XGTACX_site6284],11.3 ± 0.79
5,TAGATACATACACGCACACACATATATATATATATA [CACACA_site12],10.4 ± 0.34
6,ATCTTCAAAAATATTAGTACACATGTATCATGAATT [XGTACX_site3872],11.3 ± 0.93
7,CCACATTAAAAAAAAACACACATATATTATAGATAT [CACACA_site6662],9.94 ± 0.042
8,AATGTACGTTTTATAACACACACACTAATAAAAAAA [CACACA_site9286],11.3 ± 0.97
9,TAGTGATATAATTATGTGCACTTAATACAGGTCGAT,10.6 ± 0.42
10,TTTATTTGTAACGGTTGTACTTGTATATCATTATGA [XGTACX_site4281],11.4 ± 0.61
11,CACTAAAATAGACACACACACACACGGATATAAATA [CACACA_site7873],10.3 ± 0.23
12,CTTAAATTTAAGTTCACACATATTGGTCATTTATAT [CACACA_site5006],10.8 ± 0.44
13,ATGTATATATATATATGTACTAATTAGTAGTTTACG [XGTACX_site6272],11.1 ± 0.71
14,TGTATGTATAAAAACGCATGTATGTATTTTACAATA [TGCATGCA_site767],9.84
15,ATATATATACCAAGTAGTACATTCTACAACTAATGT [XGTACX_site8653],11.3 ± 0.7
16,GATATTTTTTTCGAAAGTACAAAAAAAAATATTTCC [XGTACX_site4389],11 ± 0.72
17,AAAATTAAAAATAACACACACATATATATATTTATA [CACACA_site2776],9.73 ± 0.13
18,ATACAGATATATAATACACACATAAATGTAACATTT [CACACA_site5864],10.055 ± 0.007
19,TACTAAGAATTAATATAACAAAATAAAAAAAAAAAA [XGTACX_negctrl_site346],9.66 ± 0.26
20,AATACATACATACATACACACATATAAATATATTAT [CACACA_site7650],10.2 ± 0.17
21,AAAAAAAAAAAACACACACACACAAATATATAAAAA [CACACA_site1171],9.98 ± 0.099
22,GTATAAAAGTTATATACACACAACAGAATTACATAT [CACACA_site6212],10.17 ± 0.071

row,Sequence,gcPBM binding intensity (ln)
1,TTTGAAAAAAATTAATGTACATTTGAAATGACATAT [XGTACX_site3902],10.8 ± 0.52
2,ATACCTTCTTTTATGTTTAATTAATATACTTTTTAT [CACACA_negctrl_site1557],10.01 ± 0.014
3,TTTTATTTAAATACACGTACATAATGTATATATATA [XGTACX_site7160],11.5 ± 0.93
4,TTTGCCCAAAAAGGTACACACCACAATGTACATAAA [CACACA_site4599],11.9 ± 1.1
5,TCATATATGGGTAGTATACACACTGTATATTTAGGA [CACACA_site2844],10.06 ± 0.071
6,GAACATTTCACACAAAAAAAAAAAAATATATATATA [TGCATGCA_negctrl_site518],9.68 ± 0.36
7,TCTTTTTAAATATATACACACCGTGTCTACAGATAC [CACACA_site5784],10.18 ± 0.071
8,ACATGATGTCATAAATGTACGCACACATACATAAAC [XGTACX_site1198],11.5 ± 0.93
9,TACTAATATAATAAAAGTACTTAAATAAATATATGT [XGTACX_site2220],11.3 ± 0.79
10,AATTATATGCTTAATACGCACACGGGAAAAAAAAAA [CACACA_site1376],10.5 ± 0.4
11,TCGTAATAATAGTTGAGTACGCACTAATATGTCAAT [XGTACX_site643],11.4 ± 0.82
12,TATTTACATTTTAGTAGTACATATATGTATATATAT [XGTACX_site6839],11.3 ± 0.79
13,TAAATAAAAAAAAATCGTACATATATTTTATATATG [XGTACX_site3293],11.1 ± 0.88
14,TTTTCAAAAATATACACACACATAAATATCTGTATA [CACACA_site4586],9.855 ± 0.035
15,TAATTATTTAAAAAGAGTACATTTTTTTTTTTTTTT [XGTACX_site1060],11.3 ± 0.78
16,ATAATTATTTAATATATATATATTATTTCGAATGTT [GTGCAC_negctrl_site688],9.715 ± 0.007
17,ATTCTATATAAATATACACACATATATAAAATACAT [CACACA_site2293],9.96 ± 0.071
18,TTAATAATTAATATATGTACTGATAAATAACATATA [XGTACX_site3966],10.9 ± 0.64
19,AGATAAAATATATATGCACACACATATATATTTCAT [CACACA_site9183],9.84 ± 0.042
20,TCTTGTATATGTTAAAGTACACAACAATATATATAT [XGTACX_site6814],11.5 ± 0.99
21,ATATTCTTGTTTAATACACACTGTAGTATTATATAT [CACACA_site4400],10.3 ± 0.13
22,TAATGAGCGCTTGTAGTGCATTATATTCAAAAATAT,10.2 ± 0.25

row,Sequence,gcPBM binding intensity (ln)
1,AGAAAAAAACAACATGCACACGCACCCACAAAAAAA [CACACA_site7908],10.4 ± 0.33
2,TCCCACTGTTATATTGAAAAAAAAAAAAAAAAAAAA [TGCATGCA_negctrl_site288],9.82 ± 0.5
3,TGTTTGTAATTATGTATGCACTTTTTTGTATGTGTG [GTGCAC_site9668],10.3 ± 0.22
4,ACATATCTATCGTTTTTAATTGTATATTATTATAAC [TGCATGCA_negctrl_site144],9.87 ± 0.028
5,AAATATTTTTAAAGAAGTACTTTTTAAAAATAATCT [XGTACX_site4897],11.2 ± 0.69
6,TTTTTTTTTTGATGAGCACACATGTTTTTTCTTAGA [CACACA_site3171],10.3 ± 0.29
7,AAAAAATATTTATGTTCACACATTTTATATATGATA [CACACA_site4821],9.905 ± 0.049
8,TAATGTTGTTTCTGAGGTACACAATTTTTTTTATTT [XGTACX_site8035],11.2 ± 0.83
9,TTAATGAAATATTATACACACAAAAAAATAATTTTA [CACACA_site4231],9.915 ± 0.092
10,TACACTTTTTTTTGTACACACTAAAAAGATTAACAA [CACACA_site6037],11.3 ± 0.82
11,TATATATATGGACACACACACACCAAAGCGTAGCGC [CACACA_site4209],10.9 ± 0.69
12,GCGTATACTTGTAACGGTACACAGGAAATTATAGAA [XGTACX_site507],10.9 ± 0.61
13,TCTTTGTTTTTTTTTTTTAAACAAAATCATCAAAGG [XGTACX_negctrl_site192],9.88 ± 0.35
14,AAGATACACCTTTTTAGTACTTACATTTTTTTTATT [XGTACX_site1373],11.4 ± 0.68
15,AATAAATATATATACACACCCATATATATATATATA [CACACA_site2595],10.2 ± 0.35
16,TATACTTGTAAATGCACACATAAGATGCGACTAATG [CACACA_site2118],10.15 ± 0.049
17,AAAAAAATAAAGGATATACACACTAATTATATATAT [CACACA_site2812],9.83 ± 0.057
18,ACCATACAGAATAATGCATGTTCCTTTTTATGAATA [TGCATGCA_site995],9.915 ± 0.021
19,AGATTATAAAATTCTACACACATATATACCTATATA [CACACA_site5848],9.79 ± 0.071
20,CTGTGTTTTGGTTGTACACACGCTACATTCTATATT [CACACA_site2698],11.5 ± 0.91
21,AAAATAATTGTTTACACACCCATTTGTAATTTTACC [CACACA_site3614],10.03 ± 0.071
22,CCAACATAGAGGGGCACACACATATATACCTAAAAA [CACACA_site5088],10.7 ± 0.51
